The list shows a part of the results.
Tested on: PfHDP1 homeodomain (GST-tagged)
Assay: gcPBM binding intensity (ln(normalized median fluorescence intensity)); higher = stronger DNA binding
Procedure, shortened: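 Binding intensity values are the highest Masliner-normalised natural-log median intensity among replicate spots of either probe orientation. The binding step lasted 1 h in 1× PBS with 1% milk, 0.2 mg/ml BSA, 0.5% salmon testes DNA and 0.03% Triton X-100, using GST-tagged P. falciparum DNA-binding domains expressed in E. coli on an Agilent 4 × 180k array of primer-extended double-stranded 36-bp intergenic genomic probes plus negative controls. Alexa488 anti-GST antibody and a 488 nm scan detected bound protein.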

Row | Sequence | gcPBM binding intensity (ln)
1 | TTTTTTGAAAATAAAAGTACAAATTTTATATTTAAA [XGTACX_site2758] | 5.65
2 | ATATATTAAAAACGATGTACCCTGAACTAAAAAAAA [XGTACX_site4986] | 6.52
3 | TATTTATTTATGTGTTGTACAAATAAATAGAGGTAT [XGTACX_site6408] | 6.85
4 | TTTATTTATTACAATTTTTGAATCACCACACAGTCG [GTGCAC_negctrl_site413] | 6.62
5 | ATCATGTTATATACATGTACATATATATATATATAT [XGTACX_site1329] | 9.34
6 | TATATGAAAATGTTCATACACACATAAAAAAAAAAA [CACACA_site3237] | 6.41
7 | CATATTTCTTTATTGGCACACATTTTTTCAATTATA [CACACA_site1618] | 6.87
8 | TGAAATAAATAATGCACACTCTACAGATATACGTAT [CACACA_site5270] | 10.1
9 | TTGAAAATACAAAATTGTACAAAGATTTAAATAAAA [XGTACX_site1182] | 6.63
10 | TGTTATTACTTTATATCATCTTAAAATAAGCATATT [CACACA_negctrl_site1501] | 6.26
11 | AAAAAAAAAAAAAACACACACAAATTTAATCTATAT [CACACA_site6894] | 6.63
12 | TTTCTTAAATATATTGAGGAATAAAAAGAAGAAAAG [GTGCAC_negctrl_site281] | 6.51
13 | TTATGAAAAATAAAATTAGAAAAAAAGGAAAATGAA [XGTACX_negctrl_site232] | 6.64
14 | AAAAAATTATAAAAGTGTACATATATATATATATAT [XGTACX_site154] | 9.48
15 | AGGTTACATAGATTTTGTACATATATATTATTTTTT [XGTACX_site3040] | 6.38
16 | TAGTTTTCTTAAAGATGTACATTTTAAAAATAATCT [XGTACX_site255] | 6.37
17 | TAGATATATAATTTGCGTACACAAATAATATATTTT [XGTACX_site6397] | 6.23
18 | AATACAAATATATACACACATACATACATACATATA [CACACA_site3147] | 6.79
19 | ATATATATATGTTACTGTACTAATTTATATGTTAAT [XGTACX_site3341] | 8.6
20 | CACAAAAATAGACACACACACATATAGATTTATTAT [CACACA_site7676] | 6.66
21 | ATACACATATGTTAATGTACACATATATAATATTTA [XGTACX_site163] | 6.8
22 | TTATGGTTTAAATAAAGTACAAATAAATAAATATAT [XGTACX_site5777] | 6.38
23 | TTCATTCAAATTAACGTGCACATTATTAGTAAAAAC | 10.7

Row | Sequence | gcPBM binding intensity (ln)
24 | TTATATAATTTAATAGTGCAATTATATTAATTTTTC | 8.66
25 | GTTCATACTTAATATTGTACTTTTCATGTAGTGTAT [XGTACX_site6613] | 6.44
26 | TACAAATATATATGCACACACATATACATACATATA [CACACA_site2182] | 10.4
27 | TATTAGATATAATATATACACACCAACGAACGAAGA [CACACA_site1134] | 7.28
28 | AAATAAATATTTATATGTACATATATTTTATAATAC [XGTACX_site7041] | 6.6
29 | TAACATATTTTTAATACACACTCAAAAAAGTACTTA [CACACA_site5638] | 6.51
30 | CGCATACACAGACACACACACACATATAAATATGTA [CACACA_site6444] | 7.16
31 | AATTTTTTATTAAACACACAAACATATATATATATA [CACACA_site1937] | 9.29
32 | TATACCTATAGACACACACACATATAGATTTATATA [CACACA_site7124] | 6.87
33 | TTTTTTCATTATATATAGTATGCAAGTCAAATTAAT [GTGCAC_negctrl_site207] | 6.8
34 | TTTTTTTTTTTGATGGTGCAATATATTAAATAGAAA | 10.4
35 | TATATATATATATAAAGTACATATAATATATATTTG [XGTACX_site5412] | 9.07
36 | ACAAAATTTACAAAATGTACAAAATTTACAAAATAT [XGTACX_site3542] | 6.27
37 | CTATAAAAATATAATTGTACAAATTTTTATATCTTA [XGTACX_site7722] | 6.16
38 | AAAAAAAAAAAAAACATACACACATTGAACTTTTAT [CACACA_site3251] | 6.51
39 | GAAAACGTCTTTAATAGTACACAGTTAAAAAATACA [XGTACX_site8976] | 6.5
40 | GAAATTATGTAAAAAAGTACTAACATACATATATAT [XGTACX_site1794] | 6.54
41 | TTTATCCAATAATCTGGTACACAATAATCATTCATG [XGTACX_site6192] | 6.22
42 | TTTCTATTTATTTCAAGTACTAAAAATATATATAAC [XGTACX_site8203] | 6.46
43 | ATTCATATATACTTCACACACATTTTATCATTCAAA [CACACA_site2468] | 7.03
44 | TTTTTTTACTTAATAGTTCAACATATATCTCAATGT [CACACA_negctrl_site620] | 6.22
45 | TTTTTGTGCATTGATTGTACTTTCTAGGATTATTAA [XGTACX_site7070] | 9.75
